# Test results as given in the supplement of paper PMC8728848.
# The list shows a part of the results.
# B1: Nictaba (Nicotiana tabacum), Q94EW1 (protein)
# chain: MQGQWIAARDLSITWVDNPQYWTWKTVDPNIEVAELRRVAWLDIYGKIETKNLIRKTSYAVYLVFKLTDNPRELERATASLRFVNEVAEGAGIEGTTVFISKKKKLPGELGRFPHLRSDGWLEIKLGEFFNNLGEDGEVEMRLMEINDKTWKSGIIVKGFDIRPN
# Key:
# Experiment in all cases: glycan array binding signal (z-score within array); higher = stronger binding
# Conditions in all cases: glycan notation: IUPAC condensed, linker removed
# [1] = target: Fuc(a1-2)Gal6S(b1-3)GlcNAc6S
# Procedure, shortened: (§1)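 Columns mapping to the same glycan were averaged after glycan names were converted to IUPAC-condensed notation. The data come from 3228 arrays in the Consortium for Functional Glycomics database, limited to those with an available protein sequence. Binding is reported as a within-array Z-score averaged across arrays of one protein sequence and across linkers.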
# Fuc(a1-2)Gal6S(b1-4)Glc = target: Fuc(a1-2)Gal6S(b1-4)Glc
# Procedure, shortened: as §1
# [2] = target: Fuc(a1-2)Gal6S(b1-4)Glc6S
# Procedure, shortened: as §1
# [3] = target: Fuc(a1-2)Gal6S(b1-4)GlcNAc
# Procedure, shortened: as §1
# Fuc(a1-2)GlcNAc = target: Fuc(a1-2)GlcNAc
# Procedure, shortened: as §1
# Fuc(a1-2)[Gal(a1-3)]Gal = target: Fuc(a1-2)[Gal(a1-3)]Gal
# Procedure, shortened: as §1
# [4] = target: Fuc(a1-2)[Gal(a1-3)]Gal(b1-3)GalNAc
# Procedure, shortened: as §1
# [5] = target: Fuc(a1-2)[Gal(a1-3)]Gal(b1-3)GalNAc(b1-3)Gal(a1-4)Gal(b1-4)Glc
# Procedure, shortened: as §1
# [6] = target: Fuc(a1-2)[Gal(a1-3)]Gal(b1-3)GlcNAc
# Procedure, shortened: as §1
# [7] = target: Fuc(a1-2)[Gal(a1-3)]Gal(b1-3)GlcNAc(b1-2)Man(a1-3)[Fuc(a1-2)[Gal(a1-3)]Gal(b1-3)GlcNAc(b1-2)Man(a1-6)]Man(b1-4)GlcNAc(b1-4)GlcNAc
# Procedure, shortened: as §1
# [8] = target: Fuc(a1-2)[Gal(a1-3)]Gal(b1-3)GlcNAc(b1-2)Man(a1-3)[Fuc(a1-2)[Gal(a1-3)]Gal(b1-3)GlcNAc(b1-2)Man(a1-6)]Man(b1-4)GlcNAc(b1-4)[Fuc(a1-6)]GlcNAc
# Procedure, shortened: as §1
# [9] = target: Fuc(a1-2)[Gal(a1-3)]Gal(b1-3)GlcNAc(b1-3)GalNAc
# Procedure, shortened: as §1
# [10] = target: Fuc(a1-2)[Gal(a1-3)]Gal(b1-3)GlcNAc(b1-6)GalNAc
# Procedure, shortened: as §1
# [11] = target: Fuc(a1-2)[Gal(a1-3)]Gal(b1-4)Glc
# Procedure, shortened: as §1
# [12] = target: Fuc(a1-2)[Gal(a1-3)]Gal(b1-4)GlcNAc
# Procedure, shortened: as §1
# [13] = target: Fuc(a1-2)[Gal(a1-3)]Gal(b1-4)GlcNAc(b1-2)Man
# Procedure, shortened: as §1
# [14] = target: Fuc(a1-2)[Gal(a1-3)]Gal(b1-4)GlcNAc(b1-2)Man(a1-3)[Fuc(a1-2)[Gal(a1-3)]Gal(b1-4)GlcNAc(b1-2)Man(a1-6)]Man(b1-4)GlcNAc(b1-4)GlcNAc
# Procedure, shortened: as §1
# [15] = target: Fuc(a1-2)[Gal(a1-3)]Gal(b1-4)GlcNAc(b1-2)Man(a1-3)[Fuc(a1-2)[Gal(a1-3)]Gal(b1-4)GlcNAc(b1-2)Man(a1-6)]Man(b1-4)GlcNAc(b1-4)[Fuc(a1-6)]GlcNAc
# Procedure, shortened: as §1
# [16] = target: Fuc(a1-2)[Gal(a1-3)]Gal(b1-4)GlcNAc(b1-3)GalNAc
# Procedure, shortened: as §1
# [17] = target: Fuc(a1-2)[Gal(a1-3)]Gal(b1-4)GlcNAc(b1-3)[Fuc(a1-2)[Gal(a1-3)]Gal(b1-4)GlcNAc(b1-6)]GalNAc
# Procedure, shortened: as §1
# [18] = target: Fuc(a1-2)[Gal(a1-3)]Gal(b1-4)GlcNAc(b1-6)GalNAc
# Procedure, shortened: as §1
# [19] = target: Fuc(a1-2)[Gal(a1-3)]Gal(b1-4)[Fuc(a1-3)]Glc
# Procedure, shortened: as §1
# [20] = target: Fuc(a1-2)[Gal(a1-3)]Gal(b1-4)[Fuc(a1-3)]GlcNAc
# Procedure, shortened: as §1
binder,measurement,setting,value
B1,glycan array binding signal (z-score),[1],-0.381
same,glycan array binding signal (z-score),Fuc(a1-2)Gal6S(b1-4)Glc,-0.247
same,glycan array binding signal (z-score),[2],-0.234
same,glycan array binding signal (z-score),[3],-0.246
same,glycan array binding signal (z-score),Fuc(a1-2)GlcNAc,-0.188
same,glycan array binding signal (z-score),Fuc(a1-2)[Gal(a1-3)]Gal,-0.335
same,glycan array binding signal (z-score),[4],-0.328
same,glycan array binding signal (z-score),[5],-0.384
same,glycan array binding signal (z-score),[6],-0.312
same,glycan array binding signal (z-score),[7],0.304
same,glycan array binding signal (z-score),[8],-0.187
same,glycan array binding signal (z-score),[9],-0.247
same,glycan array binding signal (z-score),[10],-0.387
same,glycan array binding signal (z-score),[11],-0.293
same,glycan array binding signal (z-score),[12],-0.27
same,glycan array binding signal (z-score),[13],-0.388
same,glycan array binding signal (z-score),[14],2.23
same,glycan array binding signal (z-score),[15],0.417
same,glycan array binding signal (z-score),[16],-0.273
same,glycan array binding signal (z-score),[17],-0.385
same,glycan array binding signal (z-score),[18],-0.389
same,glycan array binding signal (z-score),[19],-0.288
same,glycan array binding signal (z-score),[20],-0.316
